In the supplement of paper PMC9334596:
“And” between values parts separate entries of the source, which are not always exact repeats. Equal values may be shown once. Over roughly 5,300 compounds, “PER2::LUC luminescence relative to vehicle control” has its median near 0.96; the highest 2% begin near 1.3. The list shows a part of the results.

Test system: mPer2Luc MEF
Assay: PER2::LUC luminescence relative to vehicle control (fold of vehicle); higher = higher PER2::LUC reporter signal
Conditions: 10 µM
Method in brief: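 In 384-well plates, ~3000 mPer2Luc reporter mouse embryonic fibroblasts per well were cultured in DMEM with 10% FBS at 37 °C and 5% CO2 for 48 h before compounds from commercial libraries were added at 10 μM. ONE-Glo luciferase readings were taken 24 h and 30 h after treatment. Each value is PER2::LUC luminescence given as fold of vehicle control.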

Structure (SMILES) | PER2::LUC luminescence (time after treatment 24 h) | PER2::LUC luminescence (time after treatment 30 h)
FC(F)(Cl)C(F)(F)Cl | 0.958 | 0.896
Nc1nc2[nH]c(=O)cnc2c(=O)[nH]1 | 1.04 | 0.986
CC(C)(C)[C@]1(O)CCN2C[C@H]3c4ccccc4CCc4cccc(c43)[C@@H]2C1 | 0.872 | 0.922
CC(C)(C)[C@]1(O)CCN2C[C@H]3c4ccccc4CCc4cccc(c43)[C@@H]2C1 (racemic) | 0.848 | 0.89
O=C(/C=C\n1cnc(-c2cc(C(F)(F)F)cc(C(F)(F)F)c2)n1)NNc1ccccn1 | 0.279 | 0.224
CC1Cc2ccccc2N1NC(=O)c1ccc(Cl)c(S(N)(=O)=O)c1 (stereo not drawn) | 1.14 | 0.894
CCOCC(O)COc1ccc(NC(=O)CC[S+](C)C)cc1 (stereo not drawn) | 1.06 | 0.952
CC(=O)O[C@@H]1CC2C(C)(C)C(=O)C3OC3[C@]2(C)C2CC[C@@]3(C)[C@H](c4ccoc4)OC(=O)C4OC43[C@@]21C (stereo partly drawn) | 0.987 | 1.03
Nc1ccc(S(=O)(=O)Nc2ccnn2-c2ccccc2)cc1 | 1.09 | 1.04
CN1CCN(CCOc2cc(OC3CCOCC3)c3c(Nc4c(Cl)ccc5c4OCO5)ncnc3c2)CC1 | 0.346 | 0.318
O=C(NCC(O)CO)c1c(I)c(C(=O)NCC(O)CO)c(I)c(N(CCO)C(=O)CO)c1I (stereo not drawn) | 0.965 | 0.962
CO/N=C(\C(=O)N[C@@H]1C(=O)N2C(C(=O)O)=C(COC(N)=O)CS[C@H]12)c1ccco1 | 1.04 | 0.972
O=C(O)C1=CCCNC1 | 0.896 and 0.955 | 1.01 and 0.937
CC[C@H]1OC(=O)C[C@@H](O)[C@H](C)[C@@H](O[C@@H]2O[C@H](C)[C@@H](O)[C@H](N(C)C)[C@H]2O)[C@@H](CCN2CCCCC2)C[C@@H](C)C(=O)/C=C/C(C)=C/[C@@H]1CN1CCCCC1 | 0.885 | 0.882
NCCNC(=O)c1ncsc1-c1cccc(F)c1 | 0.92 | 0.864
Cc1cc(CC(=O)O)n(C)c1C(=O)c1ccc(Cl)cc1 | 0.936 | 1.05
CCCCCCCCCCCCCCCC(=O)O[C@@H]1[C@@H](O)[C@@H](O)[C@@H]([C@H](NC(=O)[C@@H]2C[C@@H](CCC)CN2C)[C@H](C)Cl)O[C@@H]1SC | 1.01 | 0.969
COC(=O)CC[C@@H](C)[C@H]1CC[C@H]2[C@@H]3[C@H](O)C[C@@H]4C[C@H](O)CC[C@]4(C)[C@H]3C[C@H](O)[C@]12C | 0.817 | 0.831
COc1c(O)cccc1O | 0.979 | 0.948
CC(=O)Nc1ncc([N+](=O)[O-])s1 | 1.33 and 1.09 | 0.865 and 1.09

Structure (SMILES) | PER2::LUC luminescence (time after treatment 24 h) | PER2::LUC luminescence (time after treatment 30 h)
O=C(NCCCNc1nc(Nc2cccc(CN3CCOCC3)c2)ncc1C1CC1)C1CCC1 | 0.596 | 0.603
CC12CCC(CC1)C(C)(C)O2 | 1.01 | 0.888
O=C1CN(/N=C/C=C/c2ccc([N+](=O)[O-])o2)C(=O)N1 | 1.04 | 1.01
C[C@H](CCC(=O)O)[C@H]1CC[C@H]2[C@@H]3CC[C@@H]4C[C@H](O)CC[C@]4(C)[C@H]3C[C@H](O)[C@]12C | 1.04 | 1.09
NC1(C(=O)O)CC(C(=O)O)C1 (stereo not drawn) | 1.01 | 1.04
CC(C)C[C@@H]1NC(=O)[C@H](CCCN)NC(=O)[C@H](C(C)C)NC(=O)[C@H](Cc2ccc(O)cc2)N[C@@H](CCC(=O)O)C(=O)N[C@@H](CC(N)=O)C(=O)[C@@H](Cc2ccccc2)NC(=O)[C@H](Cc2ccccc2)NC(=O)[C@@H]2CCCN2C(=O)[C@@H](Cc2ccccc2)NC1=O | 0.303 | 0.445
COc1cc(-c2cn(C3CCc4c(F)cccc4N(CC(F)(F)F)C3=O)nn2)ccc1-n1cnc(C)c1 (stereo not drawn) | 0.819 | 0.835
CC#CCOC(=O)C1=CCCN(C)C1 | 0.881 | 1
CCC(=O)Oc1ccc2c(c1)CCC1C2CCC2(C)C(OC(=O)CC)CCC12 (stereo not drawn) | 1.04 | 1.05
CC(C)=CCC/C(C)=C/CC/C(C)=C/CSCC(=O)O | 1.06 | 0.985
COc1ccc2cc(C(C)C(=O)O)ccc2c1 (stereo not drawn) | 0.919 | 1.08
Nc1ncnc2c1c(I)cn2[C@@H]1O[C@H](CO)[C@@H](O)[C@H]1O | 0.73 | 0.848
Nc1ncnc2c1nc(Sc1ccc(Cl)cc1)n2C1OC2COP(=O)(O)O[C@@H]2[C@@H]1O (stereo partly drawn) | 1.11 | 1.04
CC(=O)Nc1nc(C)c(-c2ccc(Cl)c(S(=O)(=O)NCCO)c2)s1 | 0.989 | 0.915
C[C@@H](Nc1cc(NS(=O)(=O)N2CCC2)nc(SCc2cccc(F)c2F)n1)[C@@H](O)CO | 1.03 | 1
COc1cc(-c2coc3cc(O[C@@H]4O[C@H](CO)[C@@H](O)[C@H](O)[C@H]4O)c(OC)c(O)c3c2=O)cc(O)c1OC | 0.773 | 1.31
CCCCN1CCCC1CNC(=O)c1cc(C#N)c2ccccc2c1OC (stereo not drawn) | 1 | 1.58
O=c1c(O)c(-c2ccccc2)oc2cc(O)ccc12 | 1.13 | 1.18
O=c1c(-c2ccc(O)cc2)coc2cc(O[C@@H]3O[C@H](CO)[C@@H](O)[C@H](O)[C@H]3O)ccc12 | 1.25 | 1.39
